# Measured values reported in patent US20250041385A1 (Biogen, published 2025).
# Biological target: T1, myostatin (UniProt O14793 267-375, limits assumed)
# T1 construct: also called GDF-8
# T1 sequence (looked up): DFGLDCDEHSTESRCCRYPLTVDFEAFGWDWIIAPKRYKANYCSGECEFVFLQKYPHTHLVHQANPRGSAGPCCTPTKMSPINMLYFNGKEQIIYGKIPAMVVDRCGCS
# Test: myostatin binding ELISA; potency relative to Sample #1
# Protocol: Myostatin binding activities of mutant ActRIIB polypeptide fusion protein with N18Q mutation (SEQ ID NO: 119) as well as the corresponding ActRIIB polyppetide fusion protein without N18Q mutation (SEQ ID NO: 29) were analyzed using an ELISA assay. […] Percent sialylation was determined by mass spectrometry of the N18 peptide.
row,Binder,Potency % of reference
1,"ActRIIB polypeptide fusion protein comprising soluble ActRIIB-ECD without the N18Q mutation (SEQ ID NO: 29), Batch 2 (Fc fusion, N-linked glycan at N18, 75% sialylation at N18 (mass spectrometry of the N18 peptide), this batch has higher N18 sialylation; also called Sample #2) ETRECIYYNANWELERTNQSGLERCEGDQDKRLHCYASWRNSSGTIELVKKGCWLDDINCYDRQECVATKENPQVYFCCCEGNFCNERFTHLPEAGGPEVTYEPPPTAPTGGGGS[no letters for human IgG4 Fc with S228P (EU numbers)]",79 % of reference
2,"ActRIIB polypeptide fusion protein comprising soluble ActRIIB-ECD without the N18Q mutation (SEQ ID NO: 29), Batch 3 (Fc fusion, N-linked glycan at N18, 83% sialylation at N18 (mass spectrometry of the N18 peptide), this batch has the highest N18 sialylation; also called Sample #3) ETRECIYYNANWELERTNQSGLERCEGDQDKRLHCYASWRNSSGTIELVKKGCWLDDINCYDRQECVATKENPQVYFCCCEGNFCNERFTHLPEAGGPEVTYEPPPTAPTGGGGS[no letters for human IgG4 Fc with S228P (EU numbers)]",57 % of reference
3,"Mutant soluble ActRIIB-ECD N18Q fusion protein (SEQ ID NO: 222), produced in Example 1 (Fc fusion, N18 glycosylation site removed by N18Q (N18 sialylation 0%); N-linked glycosylation sites at N41 and N194; three O-linked glycosylation sites, Expressed in CHO cells and purified on Protein A and anion exchange columns; Fraction 200-1 was used for the assays; also called N18Q mutant; Sample #4) ETRECIYYNANWELERTQQSGLERCEGDQDKRLHCYASWRNSSGTIELVKKGCWLDDINCYDRQECVATKENPQVYFCCCEGNFCNERFTHLPEAGGPEVTYEPPPTAPTGGGGS[no letters for human IgG4 Fc with S228P (EU numbers)]",108 % of reference
